In PubChem BioAssay AID1347120 (National Center for Advancing Translational Sciences (NCATS), 2019):
About 930 (0.24%) of roughly 390,000 compounds were called active. Inconclusive means that the source gave no clear call. Such entries were picked first, then a sample of the others. Calls come from the whole dose curve; as a rule, active = well fitted activation curve with a large enough effect; inconclusive = small, poorly fitted or top-dose-only effect; inactive = no such curve, though single readings can be large or run the other way. Potencies of inconclusive entries are doubtful fits and often do not repeat.

test: qHTS for Suppressors of FUS Proteinopathy: Primary screen using FUS-linked yeast assay; note: nearly all actives have a fitted effect of over 55% in size;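 for growth rescue (activation): plate controls were DMSO vehicle for no effect and reference control for full effect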; conditions: S. cerevisiae FUS-expressing, OD600, 24 h; Potency: growth rescue; growth rescue (activation): at 76.6 µM (top of the series)
In short: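 S. cerevisiae expressing FUS from galactose induction served as the toxicity model. Growth after 24hr at 30C, read as absorbance at 600 nm, indicates suppression of toxicity; compounds dosed at several concentrations.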
Potency is the fitted concentration of half-maximal effect; tags give direction and shape of the fitted curve.

Structure (SMILES) | Potency | growth rescue (activation)
NC(=O)c1c(-c2ccccc2)oc2ccc(O)cc12 | inconclusive: 0.891 µM [activator, partial curve, poor fit] | –
C[C@@H]1O[C@@H](OC[C@H]2O[C@@H](Oc3c(-c4ccc(O)c(O)c4)oc4cc(O)cc(O)c4c3=O)[C@H](O)[C@@H](O)[C@@H]2O)[C@H](O)[C@H](O)[C@H]1O | – | inactive: -31.6%
Cc1cc(C(=O)C(C)OC(=O)c2ccc(NC(=O)CC#N)cc2)c(C)n1-c1ccccc1 (stereo not given) | inconclusive: 4.47 µM [activator, full curve, poor fit] | –
O=C(NCc1ccccc1)c1c2c(nc3ccccc13)C(=O)N(C1CCCCC1)C2 | – | inactive: 17%
CC(=O)Nc1ccc(-c2nc3ccccc3c(=O)o2)cc1 | – | inactive: 0.534%
CCOc1ccc2oc(C(=O)N(C)CC(=O)Nc3ccc(OCC)c(OCC)c3)c(C)c2c1 | inconclusive: 28.2 µM [activator, partial curve, poor fit] | –
CCc1ccccc1N1C(=O)N(Cc2cc(=O)n3ccccc3n2)c2ccccc2S1(=O)=O | active: 31.6 µM | –
Cc1ccc2c(c1)N(C(=O)c1ccc(F)cc1)C(C)(C)CC2(C)c1ccccc1 (stereo not given) | inconclusive: 50.1 µM [activator, single point] | –
C=CC[C@@H](Cc1ccc(F)cc1)C(=O)OC[C@@H]1CCCN1C(=O)[C@@H](CC=C)CC(=O)N[C@H](CO)Cc1ccccc1 | inconclusive: 28.2 µM [activator, single point] | –
CCCCOC(=O)C1=C(N)N2C(=O)C(C)SC2=C(C(=O)OCC)C1c1ccc(O)c(OC)c1 (stereo not given) | inconclusive: 56.2 µM [activator, partial curve, poor fit] | –
CC(C)c1nn2c(=O)cc(COC(=O)c3cccc(NC(=O)CCc4ccccc4)c3)nc2s1 | – | inactive: 14%
O=C(Nc1ccc(Cl)cc1Cl)c1csc(-c2cccnc2)n1 | – | inactive: -22.2%
CCOC(=O)c1sc(NC(=O)/C=C/c2cnn(CC)c2C)c(C(=O)OCC)c1C | inconclusive: 31.6 µM [activator, partial curve, poor fit] | –
COC(=O)C1=C(C)N(Cc2ccccc2)C(=S)N[C@H]1c1cccc(C(F)(F)F)c1 | – | inactive: 41.9%
CCC(=O)N1CCN(c2ccc(NC(=O)c3ccc4c(c3)OCCO4)cc2)CC1 | – | inactive: 27.1%
CCN1C(=O)c2ccccc2S(=O)(=O)c2ccc(C(=O)NCc3ccc(C)cc3)cc21 | inconclusive: 28.2 µM [activator, single point] | –
O=C(Cn1ncc(Cl)c(Cl)c1=O)N1CCN(Cc2ccccc2)CC1 | – | inactive: 8.42%
Cc1nn(C)c(C)c1CN(C)C(=O)c1nn2c(c1Br)NC(c1cccs1)CC2C(F)(F)F (stereo not given) | inconclusive: 50.1 µM [activator, partial curve, poor fit] | –
CCOc1ccc(N(CC(=O)N/N=C/c2ccccn2)S(=O)(=O)c2ccc(Cl)cc2)cc1 | inconclusive: 7.94 µM [activator, partial curve] | –
COc1ccc(Cn2ccc3ccc(-c4ccc5ccn(Cc6ccccc6F)c5c4)cc32)cc1 | inconclusive: 17.8 µM [activator, partial curve, poor fit] | –

Structure (SMILES) | Potency | growth rescue (activation)
CCn1c(SCc2ccccc2)nnc1-c1cccs1 | – | inconclusive: 67.7% [activator]
CN1CC=C(c2ccc(C(F)(F)F)cc2)N(c2ccccc2)C1=O | – | inactive: -5.97%
COC(=O)[C@@]1(Cc2ccc(OC)cc2)[C@H]2c3cc(C(=O)N4CCCC4)n(Cc4ccc(S(C)(=O)=O)cc4)c3C[C@H]2CN1C(=O)c1ccccc1 | active: 25.1 µM | –
COc1ccc(-n2ccnc(NCCc3ccc(S(N)(=O)=O)cc3)c2=O)cc1Cl | – | inactive: 16%
Cc1ccc2[nH]c3c(c2c1)CN(C(=O)CN1c2ccc(F)cc2CCC1C)CC3 (stereo not given) | inconclusive: 50.1 µM [activator, single point] | –
COc1ccc(C(C)C)cc1S(=O)(=O)NCCc1c(C)[nH]c2c(Cl)cccc12 | – | inactive: 4.9%
CCOC(=O)c1c(NC(=O)CSc2nnc(-c3ccco3)o2)sc(C)c1C | inconclusive: 22.4 µM [activator, single point] | –
COc1ccc(C2=Nc3ccccc3NC(=O)C2N(CCc2ccccc2)C(=O)c2cccs2)cc1 (stereo not given) | inconclusive: 35.5 µM [activator, single point] | –
CNC(=S)Nc1cccc(-c2cnc3ccccc3n2)c1 | – | inactive: 34.5%
CCc1ccccc1NC(=O)Cn1nc(C)c2nn(-c3ccc(Cl)cc3)c(C)c2c1=O | inconclusive: 44.7 µM [activator, single point] | –
COCC(=O)Nc1ccc(F)cc1 | – | inactive: 19.6%
Cc1nn(-c2ccccc2)c2c1C(=O)N(c1ccccc1)C(=O)C(C)(C)C2 | inconclusive: 3.98 µM [activator, partial curve, poor fit] | –
Cc1ccc(NC(=O)Cn2cc(S(=O)(=O)Cc3ccccc3)c3ccccc32)cc1C | inconclusive: 50.1 µM [activator, single point] | –
COc1cccc(NC(=O)COC(=O)c2ccc(S(=O)(=O)NCc3ccco3)cc2)c1 | inconclusive: 17.8 µM [activator, partial curve] | –
COCCNC(=O)c1cc(-c2cccc(Cl)c2)on1 | – | inactive: -21.7%
CCN(Cc1cnn(C)c1)C(=O)c1cc(COc2ccc3c(c2)CCCC3)on1 | inconclusive: 25.1 µM [activator, partial curve, poor fit] | –
COc1ccc(C)cc1-n1c(SCC(=O)NCc2ccco2)nc2c([nH]c3ccccc32)c1=O | inconclusive: 17.8 µM [activator, partial curve, poor fit] | –
C=CCC[C@@H](Cc1ccc(F)cc1)C(=O)OC[C@@H](NC(=O)[C@@H](CC=C)CC(=O)N(CCO)Cc1ccccc1)c1ccccc1 | inconclusive: 11.2 µM [activator, partial curve] | –
Cc1oc(-c2ccccc2Cl)nc1CS(=O)(=O)CC(=O)NCCc1ccccc1 | inconclusive: 31.6 µM [activator, single point] | –
COC(=O)[C@@]12CCCN1[C@H](c1ccc(-c3ccccc3)c(OC)c1)[C@H]1C(=O)N(C)C(=O)[C@H]12 | inconclusive: 35.5 µM [activator, partial curve, poor fit] | –
